# The supplement of paper PMC7335073
# In all, about 4,100 sequences were measured (“relative CpG methylation activity (normalised to average over all NNNCGNNN flanks)”: median about 0.87, highest 2% from about 2.4 on). The list shows a part of the results.
# Target: DNMT3A catalytic domain (mouse) (UniProt O88508)
# Assay: relative CpG methylation activity (normalised to average over all NNNCGNNN flanks) (relative (1 = mean)); higher = more methylation of the central CpG
# Conditions: system: in vitro, murine catalytic domain; CpG state: hemimethylated substrate pool; residues: 608-908
# Outline: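 Each experiment was done in two independent repeats, using pooled dsDNA substrates with a central CpG flanked by 10 random nucleotides, methylated for 60 min at 37 °C by the murine DNMT3A or DNMT3B catalytic domain with 0.8 mM S-adenosyl-L-methionine in HEPES pH 7.5 buffer. After bisulfite conversion and PCR, the DNA was read by Illumina sequencing. Methylation was averaged per context, defined by three bases on each side of the CpG. Relative methylation activity is each context's average methylation over the mean of all contexts.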
row,Sequence,relative CpG methylation activity
1,GTCCGCCG,2.46
2,ACCCGCGG,0.374
3,GATCGATC,0.766
4,CGCCGAGC,1.37
5,GCCCGATC,1.42
6,ATCCGAGG,1.03
7,ATGCGAAG,0.538
8,AATCGATG,0.127
9,GCACGAGC,1.61
10,GCGCGCTG,1.34
11,GTTCGTAC,0.882
12,CGGCGAGT,0.533
13,AAGCGGTC,0.791
14,CTTCGCTC,2.46
15,TGGCGTAT,0.389
16,ATACGCGG,0.901
17,CTGCGTGG,0.317
18,CTCCGCAC,1.88
19,ACGCGCCC,2.26
20,CTTCGACT,1.34
21,ACACGAGT,1.46
22,TCACGCAC,1.62

row,Sequence,relative CpG methylation activity
1,GCCCGCTG,1.4
2,TCCCGCTG,1.13
3,CTGCGGGT,1.03
4,TGACGCCG,1.39
5,TCGCGCTG,1.41
6,TTCCGGCG,1.94
7,ATGCGAAT,1.04
8,ACCCGGAA,0.69
9,TGCCGACA,0.909
10,AGCCGCAA,0.468
11,TCACGAGA,1.04
12,AGTCGGCC,0.721
13,ATCCGATT,1.64
14,AAACGAGT,0.644
15,TGGCGCCA,0.851
16,TGACGGAA,0.775
17,CGGCGAGC,0.729
18,TACCGCCT,1.77
19,TCACGGGT,0.882
20,TACCGAGG,0.287
21,TGCCGCTA,0.809
22,AACCGCCC,1.78

row,Sequence,relative CpG methylation activity
1,GACCGTTG,0.488
2,ACCCGCCG,1.76
3,GTCCGGTG,1.27
4,CCGCGTAC,0.881
5,AATCGAGC,0.655
6,TAGCGCTA,0.387
7,AAGCGGCT,0.462
8,CTACGCGT,1.87
9,GGACGAAT,0.517
10,TGGCGGAT,0.224
11,CGTCGACC,0.798
12,CACCGCAG,0.481
13,GAGCGCCA,0.912
14,GCTCGGAC,1.46
15,CCTCGCGT,1.36
16,ATGCGTTT,1.19
17,ATTCGATA,0.925
18,TCGCGTGC,0.297
19,CAGCGGGA,0.539
20,ATACGGAC,1.87
21,AGGCGGAT,0.435
22,GCCCGAGG,0.787

row,Sequence,relative CpG methylation activity
1,ATTCGCTT,1.77
2,AATCGGAG,0.0338
3,CCACGCCA,1.91
4,ACGCGGAC,1.08
5,ACCCGATA,1.07
6,CGGCGCGA,0.179
7,CGACGCGA,0.524
8,CATCGTGT,0.357
9,AGCCGTCC,1.53
10,TCTCGCAA,1.4
11,TGCCGAGT,0.638
12,TAACGCTG,0.798
13,CAACGAAT,0.648
14,CTGCGGAG,0.872
15,GCGCGGAA,0.56
16,TACCGAAG,0.425
17,TTGCGCTC,2.26
18,AGGCGGGA,0.347
19,ATGCGGCT,1.27
20,AAGCGATT,0.592
